# Some of the results follow.
# B1: GS13455A-bfa-343-25-343 (Bacteroides fragilis) (protein)
# chain: KDEIQIVDQDTSWQMDNKYIEEDIREQLGIDPFTDLVYLGYYGNPYTQLEAINDLVNTTLVGKNELSFKVKVTKPYKEDIKVNLMKEDKLVTDFPEMAEGIPLFPSENCTFEGGVLKAGELETTVKLTLKDVEKLNNLSGYVMAIKLTMEGSHEHLAIARTRSSYFVKLNLSIRLDNIDSSNKKIEGKGFNKEISFKSDIRPDKLGSLNDGNFTANNWYTSNANNYLTIILPEKQSLKGFRLDTNTSPSGSYMLKSCRVMVETPDGNWVNHGVFDRKSMDGIAYISFKKPVECTKVRFENMMAFNGRFSVDVNEVTAFR
# Assays:
# Test in all cases: glycan array binding signal (z-score within array); higher = stronger binding
# Details in all cases: glycan notation: IUPAC condensed, linker removed
# [1] = molecular target: Fuc(a1-2)[Gal(a1-3)]Gal(b1-4)GlcNAc(b1-2)Man(a1-3)[Fuc(a1-2)[Gal(a1-3)]Gal(b1-4)GlcNAc(b1-2)Man(a1-6)]Man(b1-4)GlcNAc(b1-4)[Fuc(a1-6)]GlcNAc
# How it was run: (§1)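 Negative Z-scores can be read as non-binding. The Z-score is calculated within each array and then averaged across arrays of one protein sequence at different concentrations or buffers and across linkers. Arrays, 3228 in all, were curated from the Consortium for Functional Glycomics database and kept only where the protein sequence was available.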
# [2] = molecular target: Fuc(a1-2)[Gal(a1-3)]Gal(b1-4)GlcNAc(b1-3)GalNAc
# How it was run: as §1
# [3] = molecular target: Fuc(a1-2)[Gal(a1-3)]Gal(b1-4)GlcNAc(b1-3)[Fuc(a1-2)[Gal(a1-3)]Gal(b1-4)GlcNAc(b1-6)]GalNAc
# How it was run: as §1
# [4] = molecular target: Fuc(a1-2)[Gal(a1-3)]Gal(b1-4)GlcNAc(b1-6)GalNAc
# How it was run: as §1
# [5] = molecular target: Fuc(a1-2)[Gal(a1-3)]Gal(b1-4)[Fuc(a1-3)]Glc
# How it was run: as §1
# [6] = molecular target: Fuc(a1-2)[Gal(a1-3)]Gal(b1-4)[Fuc(a1-3)]GlcNAc
# How it was run: as §1
# [7] = molecular target: Fuc(a1-2)[Gal(a1-3)]Gal(b1-4)[Fuc(a1-3)]GlcNAc(b1-3)GalNAc
# How it was run: as §1
# [8] = molecular target: Fuc(a1-2)[Gal(a1-4)]Gal(b1-4)GlcNAc
# How it was run: as §1
# [9] = molecular target: Fuc(a1-2)[GalNAc(a1-3)]Gal
# How it was run: as §1
# [10] = molecular target: Fuc(a1-2)[GalNAc(a1-3)]Gal(b1-3)GalNAc(a1-3)[Fuc(a1-2)]Gal(b1-4)GlcNAc
# How it was run: as §1
# [11] = molecular target: Fuc(a1-2)[GalNAc(a1-3)]Gal(b1-3)GalNAc(b1-3)Gal(a1-4)Gal(b1-4)Glc
# How it was run: as §1
# [12] = molecular target: Fuc(a1-2)[GalNAc(a1-3)]Gal(b1-3)GlcNAc
# How it was run: as §1
# [13] = molecular target: Fuc(a1-2)[GalNAc(a1-3)]Gal(b1-3)GlcNAc(b1-2)Man(a1-3)[Fuc(a1-2)[GalNAc(a1-3)]Gal(b1-3)GlcNAc(b1-2)Man(a1-6)]Man(b1-4)GlcNAc(b1-4)GlcNAc
# How it was run: as §1
# [14] = molecular target: Fuc(a1-2)[GalNAc(a1-3)]Gal(b1-3)GlcNAc(b1-2)Man(a1-3)[Fuc(a1-2)[GalNAc(a1-3)]Gal(b1-3)GlcNAc(b1-2)Man(a1-6)]Man(b1-4)GlcNAc(b1-4)[Fuc(a1-6)]GlcNAc
# How it was run: as §1
# [15] = molecular target: Fuc(a1-2)[GalNAc(a1-3)]Gal(b1-3)GlcNAc(b1-3)GalNAc
# How it was run: as §1
# [16] = molecular target: Fuc(a1-2)[GalNAc(a1-3)]Gal(b1-3)GlcNAc(b1-6)GalNAc
# How it was run: as §1
# [17] = molecular target: Fuc(a1-2)[GalNAc(a1-3)]Gal(b1-4)Glc
# How it was run: as §1
# [18] = molecular target: Fuc(a1-2)[GalNAc(a1-3)]Gal(b1-4)GlcNAc
# How it was run: as §1
# [19] = molecular target: Fuc(a1-2)[GalNAc(a1-3)]Gal(b1-4)GlcNAc(b1-2)Man
# How it was run: as §1
# [20] = molecular target: Fuc(a1-2)[GalNAc(a1-3)]Gal(b1-4)GlcNAc(b1-2)Man(a1-3)[Fuc(a1-2)[GalNAc(a1-3)]Gal(b1-4)GlcNAc(b1-2)Man(a1-6)]Man(b1-4)GlcNAc(b1-4)GlcNAc
# How it was run: as §1
# [21] = molecular target: Fuc(a1-2)[GalNAc(a1-3)]Gal(b1-4)GlcNAc(b1-2)Man(a1-3)[Fuc(a1-2)[GalNAc(a1-3)]Gal(b1-4)GlcNAc(b1-2)Man(a1-6)]Man(b1-4)GlcNAc(b1-4)[Fuc(a1-6)]GlcNAc
# How it was run: as §1
# [22] = molecular target: Fuc(a1-2)[GalNAc(a1-3)]Gal(b1-4)GlcNAc(b1-3)Gal(b1-4)GlcNAc
# How it was run: as §1
# [23] = molecular target: Fuc(a1-2)[GalNAc(a1-3)]Gal(b1-4)GlcNAc(b1-3)Gal(b1-4)GlcNAc(b1-3)Gal(b1-4)GlcNAc
# How it was run: as §1
# [24] = molecular target: Fuc(a1-2)[GalNAc(a1-3)]Gal(b1-4)GlcNAc(b1-3)GalNAc
# How it was run: as §1
# [25] = molecular target: Fuc(a1-2)[GalNAc(a1-3)]Gal(b1-4)GlcNAc(b1-3)[Fuc(a1-2)[GalNAc(a1-3)]Gal(b1-4)GlcNAc(b1-6)]GalNAc
# How it was run: as §1
# [26] = molecular target: Fuc(a1-2)[GalNAc(a1-3)]Gal(b1-4)GlcNAc(b1-6)GalNAc
# How it was run: as §1
# [27] = molecular target: Fuc(a1-2)[GalNAc(a1-3)]Gal(b1-4)[Fuc(a1-3)]GlcNAc
# How it was run: as §1
# [28] = molecular target: Fuc(a1-2)[GalNAc(a1-3)]Gal(b1-4)[Fuc(a1-3)]GlcNAc(b1-3)GalNAc
# How it was run: as §1
# [29] = molecular target: Fuc(a1-2)[GalNAc(a1-4)]Gal(b1-4)GlcNAc
# How it was run: as §1
# [30] = molecular target: Fuc(a1-2)[GalNAc(b1-3)]Gal
# How it was run: as §1
binder,measurement,setting,value
B1,glycan array binding signal (z-score),[1],-0.628
same,glycan array binding signal (z-score),[2],-0.803
same,glycan array binding signal (z-score),[3],0.147
same,glycan array binding signal (z-score),[4],-0.376
same,glycan array binding signal (z-score),[5],-0.566
same,glycan array binding signal (z-score),[6],-0.105
same,glycan array binding signal (z-score),[7],0.009
same,glycan array binding signal (z-score),[8],0.385
same,glycan array binding signal (z-score),[9],0.215
same,glycan array binding signal (z-score),[10],0.278
same,glycan array binding signal (z-score),[11],-0.193
same,glycan array binding signal (z-score),[12],0.48
same,glycan array binding signal (z-score),[13],0.229
same,glycan array binding signal (z-score),[14],0.207
same,glycan array binding signal (z-score),[15],2.29
same,glycan array binding signal (z-score),[16],-0.628
same,glycan array binding signal (z-score),[17],1.22
same,glycan array binding signal (z-score),[18],0.182
same,glycan array binding signal (z-score),[19],0.645
same,glycan array binding signal (z-score),[20],-0.335
same,glycan array binding signal (z-score),[21],1.46
same,glycan array binding signal (z-score),[22],-0.415
same,glycan array binding signal (z-score),[23],-0.611
same,glycan array binding signal (z-score),[24],0.248
same,glycan array binding signal (z-score),[25],-0.563
same,glycan array binding signal (z-score),[26],-0.788
same,glycan array binding signal (z-score),[27],0.105
same,glycan array binding signal (z-score),[28],-0.387
same,glycan array binding signal (z-score),[29],-0.582
same,glycan array binding signal (z-score),[30],1.09

# From the supplement of paper PMC8728848
